Test results reported in the supplement of paper PMC3334620.
In all, about 33,000 sequences were measured (“E-score (-0.5 to 0.5)”: median about -0.017, highest 2% from about 0.3 on). The list shows a part of the results.

The sequences below were run against T1, Sut1 (UniProt P53032) (assay: PBM E-score (8-mer binding enrichment) (E-score (-0.5 to 0.5)); higher = stronger / more preferred TF binding; most listed sequences are background and not binding sites). Conditions: protein concentration: 200 nM; construct: GST-full length.
T1 sequence: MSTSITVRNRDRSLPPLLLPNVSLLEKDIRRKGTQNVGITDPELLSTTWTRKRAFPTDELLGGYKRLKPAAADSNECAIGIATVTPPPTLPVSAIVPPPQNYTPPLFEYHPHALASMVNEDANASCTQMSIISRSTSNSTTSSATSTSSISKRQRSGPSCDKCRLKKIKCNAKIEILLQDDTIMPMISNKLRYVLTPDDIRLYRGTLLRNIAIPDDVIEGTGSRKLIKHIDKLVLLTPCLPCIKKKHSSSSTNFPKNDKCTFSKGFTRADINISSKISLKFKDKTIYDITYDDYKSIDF
Method in brief: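 E-scores (a modified Wilcoxon-Mann-Whitney statistic) were assigned by the Universal PBM Analysis Suite to every ungapped eight-base word pooled with its reverse complement. The input came from universal all-10-mer Agilent arrays made double-stranded by primer extension and probed with GST-tagged yeast transcription factors at about 100-200 nM. Fluorescent anti-GST detected bound protein, and masliner normalised the scans.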
With TACTGGGA the “PBM E-score” value was 0.0127. In the case of ACCCGAGG, the “PBM E-score” value is reported as -0.246. AGCGAGGG was tested, and the “PBM E-score” value was -0.263. With CGAAAGAA the “PBM E-score” value was 0.229. For AGTGCGAC, the “PBM E-score” value was -0.175. TGTGTTAA was tested, and the “PBM E-score” value was 0.193. With CTCTTGTC the “PBM E-score” value was -0.00402. With AGATTTAG the “PBM E-score” value was 0.087. In the case of TACATTAA, the “PBM E-score” value is reported as 0.266. In the case of GTGTAATA, the “PBM E-score” value is reported as 0.202. In the case of ATGGCCAA, the “PBM E-score” value is reported as -0.0795. For GCGGGCCA, the “PBM E-score” value was -0.155. For CAAGGGCA, the “PBM E-score” value was -0.285. ACGCCATC was tested, and the “PBM E-score” value was -0.164. For ATGAGACC, the “PBM E-score” value was -0.00164. ATCAAAGG was tested, and the “PBM E-score” value was -0.0488. CCACCGAA was tested, and the “PBM E-score” value was 0.0255. With ATTCATGA the “PBM E-score” value was -0.0184. For ACATGGTA, the “PBM E-score” value was 0.037. For AATTATCC, the “PBM E-score” value was 0.1. In the case of CTAAGAAG, the “PBM E-score” value is reported as 0.119. For GAGCGACC, the “PBM E-score” value was 0.0209. CAAACCCA was tested, and the “PBM E-score” value was 0.0595. In the case of CGGACAAG, the “PBM E-score” value is reported as 0.22. In the case of CACTCCCG, the “PBM E-score” value is reported as -0.0356. In the case of AACACGCC, the “PBM E-score” value is reported as -0.068. GGATAAGA was tested, and the “PBM E-score” value was -0.0157. In the case of AGTAAATC, the “PBM E-score” value is reported as 0.117. With AAGATTGA the “PBM E-score” value was 0.0669. For GAAATGTC, the “PBM E-score” value was -0.0171. In the case of CGTATCCA, the “PBM E-score” value is reported as -0.0901. GAATAGTA was tested, and the “PBM E-score” value was 0.215. With ACTGAGAA the “PBM E-score” value was -0.149. With GCAACCCC the “PBM E-score” value was 0.0182. For ACGGACTC, the “PBM E-score” value was 0.393. With CGGGATTA the “PBM E-score” value was 0.202. For ATAAATGG, the “PBM E-score” value was 0.067. ATGACGAG was tested, and the “PBM E-score” value was -0.12. ACATTTAT was tested, and the “PBM E-score” value was 0.135. GCTCTTTA was tested, and the “PBM E-score” value was 0.121. ACCCACGT was tested, and the “PBM E-score” value was -0.0719. With CTCTCTGC the “PBM E-score” value was -0.104. For AAACGGTA, the “PBM E-score” value was 0.0446. In the case of AGCATTAG, the “PBM E-score” value is reported as -0.0752. For ATCGTTGA, the “PBM E-score” value was -0.0646. In the case of CACCTTAG, the “PBM E-score” value is reported as -0.129. For ATCGTCAA, the “PBM E-score” value was 0.111. In the case of AGCACGCT, the “PBM E-score” value is reported as -0.279. ACTCTACA was tested, and the “PBM E-score” value was -0.146. For CACTCCGA, the “PBM E-score” value was 0.471. With TCCATGCA the “PBM E-score” value was -0.025. With CTTACGTC the “PBM E-score” value was -0.17. TCATTAAA was tested, and the “PBM E-score” value was 0.315. AAAGGTCG was tested, and the “PBM E-score” value was -0.0989. In the case of GTTATGGA, the “PBM E-score” value is reported as 0.135. CTTAGTAA was tested, and the “PBM E-score” value was 0.101. With TCTTAAAA the “PBM E-score” value was 0.111. In the case of ACGAAGGA, the “PBM E-score” value is reported as 0.0241. In the case of ACTGTAGG, the “PBM E-score” value is reported as 0.0472. For AGCTGTAT, the “PBM E-score” value was -0.0697. With GGACGCGA the “PBM E-score” value was -0.0957. CCGCTAGC was tested, and the “PBM E-score” value was -0.104. For TAGCAACA, the “PBM E-score” value was 0.124. In the case of ACCTTACC, the “PBM E-score” value is reported as 0.0475. GAATAGCC was tested, and the “PBM E-score” value was -0.0454. In the case of GAAGGACC, the “PBM E-score” value is reported as -0.0389. ACGGCGTG was tested, and the “PBM E-score” value was -0.0512. For AGTGGTTG, the “PBM E-score” value was 0.0807. With CGAGTTTC the “PBM E-score” value was 0.0659. In the case of AATAGGCA, the “PBM E-score” value is reported as 0.0103. With GAGGCTAC the “PBM E-score” value was -0.349. With ATGAACAA the “PBM E-score” value was 0.134. With AACAGCGA the “PBM E-score” value was -0.19. With CGAATGTC the “PBM E-score” value was 0.0601. AGTGCTTG was tested, and the “PBM E-score” value was -0.0475. With AACATACG the “PBM E-score” value was 0.00839. In the case of CTCTCCTA, the “PBM E-score” value is reported as -0.0385. With ATTTGCCG the “PBM E-score” value was 0.126. With ACCAATAG the “PBM E-score” value was -0.115. With CCTCTGCC the “PBM E-score” value was -0.231. With AATGCCCG the “PBM E-score” value was -0.158. With AAGCACCA the “PBM E-score” value was -0.0701. AAGCTCGT was tested, and the “PBM E-score” value was -0.0854. For ATTCTTTC, the “PBM E-score” value was 0.262. GAGCGAGA was tested, and the “PBM E-score” value was 0.202. With GACAAGCA the “PBM E-score” value was -0.109. With CACTGGAA the “PBM E-score” value was 0.0452. In the case of ACTGGAAA, the “PBM E-score” value is reported as -0.0243. With GGCCTGAC the “PBM E-score” value was -0.213. With ACATTAGG the “PBM E-score” value was 0.0153. CGAGGGTC was tested, and the “PBM E-score” value was -0.194. In the case of GAGGCGAA, the “PBM E-score” value is reported as -0.0721. CTTGACAA was tested, and the “PBM E-score” value was 0.058. In the case of ATGTGGGA, the “PBM E-score” value is reported as -0.0455. GAACATTC was tested, and the “PBM E-score” value was 0.0907. For GCTGTACA, the “PBM E-score” value was -0.155. For AATTTGCG, the “PBM E-score” value was 0.126. For TCACCTGA, the “PBM E-score” value was -0.165. ATCGATCA was tested, and the “PBM E-score” value was 0.0202. With ACAGAAGT the “PBM E-score” value was -0.00216. With CCATGGAC the “PBM E-score” value was -0.229. With CCGTAAAC the “PBM E-score” value was 0.0734. In the case of GCCAGCCC, the “PBM E-score” value is reported as -0.278. With AGGCGACC the “PBM E-score” value was -0.207. With GATCATCA the “PBM E-score” value was -0.153. With CGCCGATA the “PBM E-score” value was -0.197. In the case of ACGCCTCT, the “PBM E-score” value is reported as -0.164. With ACGAAGGC the “PBM E-score” value was -0.338. For ATCGCGCG, the “PBM E-score” value was 0.0868. For ACCGAAGC, the “PBM E-score” value was -0.0421. In the case of CCGCAGGA, the “PBM E-score” value is reported as -0.245. For CGAGCCTC, the “PBM E-score” value was -0.129. For AAGAAAAA, the “PBM E-score” value was 0.319. In the case of ATGACCTG, the “PBM E-score” value is reported as -0.085. For GCGCTGAA, the “PBM E-score” value was -0.106. In the case of ATTACTGA, the “PBM E-score” value is reported as 0.037. With CCTCAATA the “PBM E-score” value was -0.0482. With CTACTGAG the “PBM E-score” value was 0.028. In the case of TCCAAAGA, the “PBM E-score” value is reported as -0.00733. In the case of CGTTGCGA, the “PBM E-score” value is reported as -0.0552. For ACGCACCG, the “PBM E-score” value was -0.083. For GGACTACC, the “PBM E-score” value was 0.207. ACGCCCAC was tested, and the “PBM E-score” value was -0.244. For AAGATGTG, the “PBM E-score” value was -0.0532. TTAGACAA was tested, and the “PBM E-score” value was 0.149. In the case of GGCGTCTA, the “PBM E-score” value is reported as -0.125. For GGTTGTGA, the “PBM E-score” value was 0.0966. With TATCGTGA the “PBM E-score” value was 0.0374. For AAACACCT, the “PBM E-score” value was -0.0807. With AGTTCCAT the “PBM E-score” value was 0.0714. AGGTGTAC was tested, and the “PBM E-score” value was -0.124. For GAGTACCA, the “PBM E-score” value was 0.17. For CCTGCTAG, the “PBM E-score” value was -0.22. AAGGATGC was tested, and the “PBM E-score” value was -0.199. AGGCATTC was tested, and the “PBM E-score” value was -0.125. For ACATCTCG, the “PBM E-score” value was 0.0654. For ATGCGGTC, the “PBM E-score” value was 0.0607. For AATGAGTG, the “PBM E-score” value was 0.0492. For CTGATCGC, the “PBM E-score” value was -0.248. CCATGCGA was tested, and the “PBM E-score” value was 0.114. With ATCACTAA the “PBM E-score” value was 0.0894. CCCGCCCC was tested, and the “PBM E-score” value was 0.0349. With AAGAATCC the “PBM E-score” value was 0.00906. ACTATGCA was tested, and the “PBM E-score” value was 0.0796. For TAGCTTAA, the “PBM E-score” value was -0.00342. With GAAGCGCC the “PBM E-score” value was 0.0753. TAATATAA was tested, and the “PBM E-score” value was 0.306. GACGCAAA was tested, and the “PBM E-score” value was -0.0155. GCTGACTA was tested, and the “PBM E-score” value was -0.057. With ATGTCTCG the “PBM E-score” value was -0.0584. With AGAACCTA the “PBM E-score” value was -0.0856. In the case of CATTTGCA, the “PBM E-score” value is reported as 0.0495. AAGTTGAA was tested, and the “PBM E-score” value was 0.0627. With CCATACTC the “PBM E-score” value was -0.246. With ACCATCTA the “PBM E-score” value was -0.00802. For GCCTATGA, the “PBM E-score” value was -0.267. AGTTCAAG was tested, and the “PBM E-score” value was 0.147. In the case of AATCCCTC, the “PBM E-score” value is reported as -0.132. With AGCGCGCA the “PBM E-score” value was 0.00859. CGAGCTTC was tested, and the “PBM E-score” value was 0.165. For AATTGAAC, the “PBM E-score” value was 0.0105. In the case of GAGCCCCA, the “PBM E-score” value is reported as -0.14. AGCGGCAA was tested, and the “PBM E-score” value was -0.215. For ACTATAGA, the “PBM E-score” value was 0.168. For ACCCCTGG, the “PBM E-score” value was -0.332. In the case of CCATACAG, the “PBM E-score” value is reported as -0.18. GTCACGCA was tested, and the “PBM E-score” value was -0.0816. For CACCACTC, the “PBM E-score” value was 0.0323. For ACTCACTC, the “PBM E-score” value was 0.135. With CAGCAAGC the “PBM E-score” value was -0.298. ACCACCGG was tested, and the “PBM E-score” value was 0.0681. With AATCCAAT the “PBM E-score” value was 0.0377.
